From publication PMC6919601, “Identification of Plasmodium dipeptidyl aminopeptidase allosteric inhibitors by high throughput screening” (PLoS ONE, 2019)
Screen size: about 110,000 compounds; about 230 (0.21%) showed an effect of 50% or more. The list shows a part of the results.

target: DPAP1 (Plasmodium falciparum, UniProt Q8IIJ9); assay: primary screen, percent inhibition; read by cleavage of a fluorogenic dipeptide substrate; higher = more effect of the substance; design: species or system P. falciparum D10 trophozoite lysates; single well
Sequence (Q8IIJ9 whole entry, looked up): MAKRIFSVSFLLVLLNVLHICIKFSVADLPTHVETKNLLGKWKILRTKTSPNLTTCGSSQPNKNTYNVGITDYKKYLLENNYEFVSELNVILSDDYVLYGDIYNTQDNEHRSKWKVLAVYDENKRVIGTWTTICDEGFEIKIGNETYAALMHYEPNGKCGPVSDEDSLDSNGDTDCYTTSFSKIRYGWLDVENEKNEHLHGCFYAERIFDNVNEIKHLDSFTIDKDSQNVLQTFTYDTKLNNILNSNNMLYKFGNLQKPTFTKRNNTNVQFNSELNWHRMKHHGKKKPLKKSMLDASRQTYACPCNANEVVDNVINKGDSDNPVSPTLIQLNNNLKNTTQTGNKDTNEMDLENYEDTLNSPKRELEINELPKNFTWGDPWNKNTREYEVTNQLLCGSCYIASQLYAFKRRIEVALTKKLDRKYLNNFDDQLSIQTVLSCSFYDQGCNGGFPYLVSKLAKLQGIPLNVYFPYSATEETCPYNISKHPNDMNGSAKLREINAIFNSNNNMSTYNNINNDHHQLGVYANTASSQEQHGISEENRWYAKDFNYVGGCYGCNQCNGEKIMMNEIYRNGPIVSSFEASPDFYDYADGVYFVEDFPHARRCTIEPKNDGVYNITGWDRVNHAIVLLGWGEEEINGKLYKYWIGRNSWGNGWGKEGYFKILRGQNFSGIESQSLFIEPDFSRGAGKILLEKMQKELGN
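Further: 30 min substrate incubation versus DMSO and 10 µM JCP410 controls.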

Compound	% Inhibition @ 10 uM
O=C(COc1ccc(Cl)cc1)NC1CCCCC1NC(=O)COc1ccc(Cl)cc1 (stereo not drawn)	-5.92%
Cc1sc2cc(-c3ccccc3)cn2c1C	-2.83%
Cc1ccc(-c2nc(Cn3cc(C=C4C(=O)N(C)C(=O)N(C)C4=O)c4ccccc43)no2)cc1	0.408%
CC1CC(=O)C2=C(C1)OC(N)=C(C#N)C2c1ccc(Cl)cc1 (stereo not drawn)	-2%
N#CC1=C(N)Oc2[nH]nc(-c3ccc(F)cc3)c2C1c1ccoc1 (stereo not drawn)	3.92%
COc1ccccc1Nc1nc(-c2cccs2)cs1	-8.05%
CC1=C(C(=O)OCCOc2ccccc2)C(c2ccccc2C)CC(=O)N1 (stereo not drawn)	8.96%
CCc1cccc(NC(=O)c2ccoc2C)c1	7.39%
COc1cc(OC)c(OC)cc1/C=C1\SC(N2CCCC(C)C2)=NC1=O (stereo not drawn)	3.67%
CCOC(=O)c1c(NS(=O)(=O)c2ccc(OC)c(OC)c2)sc2c1CCCC2	-5.85%
COc1ccc(C)cc1N(CC(=O)N1CCCCC1)S(=O)(=O)c1ccccc1	5.56%
O=S(=O)(c1ccc(Cl)cc1)c1nc(Cc2ccccc2)oc1N1CCOCC1	-11%
Cc1scc(CN2CC(C)CC(C)C2)c1C (stereo not drawn)	1.5%
CN(Cc1ccccc1)C(=O)Cn1ncn2nc(-c3cccs3)cc2c1=O	-1.3%
O=C(c1ccc(S(=O)(=O)N2CCOCC2)cc1)N1CCN(c2ccccc2)CC1	-1.2%
COc1ccc(C2(O)CN3C=CC=CC3=[N+]2c2ccccc2)cc1 (stereo not drawn)	18.1%
O=C(O)CSc1nc2ccccc2s1	-0.274%
CC(C)CNS(=O)(=O)c1ccc(CCC(=O)NC2CCCCCC2)cc1	-1.02%
Cc1ccc(/C=C2/SC(=O)N(CC(=O)Nc3ccccc3)C2=O)s1	-4.13%
COc1ccccc1NC(=O)C1=C(C)N=C2CC(C)(C)CC(O)=C2C1c1cccc(C)c1 (stereo not drawn)	2.51%
CCOC(=O)c1c(S(=O)(=O)N(Cc2ccco2)C2CCCC2)c(C)n(C)c1C	-6.64%
COc1ccc(CC(=O)N(Cc2ccccc2)C(C)C)cc1	6.53%
Cc1nc(O)c(C(c2ccccc2)c2c(O)nc(C)nc2O)c(O)n1	-5.05%
Cc1ccc(NC(=O)c2ccccc2OC(F)F)cc1F	-2.85%
O=C(O)c1cccc(NCC(=O)c2ccccc2)c1	0.324%
CCc1ccc(C(=O)c2cnc3cc4c(cc3c2N2CCCC2)OCCO4)cc1	3.43%

Compound	% Inhibition @ 10 uM
Clc1ccc(Cl)c(OCCCCN2CCOCC2)c1	-0.711%
O=C(c1cc(Cl)ccc1Cl)N1CCN(c2ccc([N+](=O)[O-])cc2)CC1	-4.32%
CC(C)(C)OC(=O)N1CCC(c2c(C(=O)NCc3cccnc3)cnn2-c2ccccc2Cl)CC1	-2.53%
Cc1ccc(NC(=O)c2cc(F)c(Cl)nc2Cl)cc1	3.96%
Cc1c(C(=O)Nc2ccc(C(C)(C)C)cc2)cnn1-c1ccccc1	-3.69%
Cn1ncc(Cl)c1C(=O)Nc1sc2c(c1C(N)=O)CCC2	1.82%
O=C1N=C(N2CCN(Cc3ccccc3)CC2)S/C1=C\c1ccccc1	-2.82%
O=C(NCCCNC1=NS(=O)(=O)c2ccccc21)c1ccc(F)cc1	16.8%
CCSC1=NSC2=NC(=O)/C(=C\c3cccc4ccccc34)C(=N)N12	1.85%
CCCO/C(O)=C1\C(C)=NC2=C(C(=O)CCC2)C1c1cccc(Cl)c1 (stereo not drawn)	-0.631%
CCOC(=O)c1c(/N=C/c2c(CO)cnc(C)c2O)sc2c1CCCC2	10.5%
CC1=C(C)CC(C(=O)Nc2cc(Cl)cc(Cl)c2)C(C(=O)O)C1 (stereo not drawn)	4.64%
CC(C(=O)N1CCC(C(N)=O)CC1)n1sc2ccccc2c1=O (stereo not drawn)	-9.13%
CCCc1nn(-c2ccc(F)cc2)c(O)c1C=N	6.91%
Cc1ccc(CNCCCSc2nnnn2C)s1	2.25%
O=C1c2ccccc2C(=O)c2c1cccc2-n1cnnn1	1.84%
COCC(C)NCc1ccc(C)cc1C (stereo not drawn)	1.13%
Clc1ccc(-c2nnc(-c3ccccc3)o2)cc1	-3.74%
Cc1ccc(-c2ccc(=O)n(CCC(=O)NCCN(CC(C)C)CC(C)C)n2)cc1	-5.43%
Cc1ccc(C(=O)N/C(=C\c2ccco2)C(=O)NC2CCCC2)cc1C	-2.78%
COc1ccc(Nc2ccc(C(=O)NC(C)c3ccccc3)cc2[N+](=O)[O-])cc1 (stereo not drawn)	-6.52%
CC(NC(=O)c1ccccc1)C1COc2ccccc2O1 (stereo not drawn)	5.03%
N#CC1=C(N)Oc2cc(N)ccc2C1c1cccc(Cl)c1 (stereo not drawn)	3.05%
CCOc1ccc(C(=O)Nc2nnc(S(=O)(=O)N(C)Cc3ccc(Cl)cc3)s2)cc1	-7.28%
Cc1cc(C)n2nc(NCc3ccc(C(C)C)cc3)nc2n1	2.42%
